Paper PMC4336329 (PLoS ONE, 2015)
Among all 310,000 compounds or so, about 2,200 (0.71%) showed an effect of 50% or more. The effect is printed as a negative number. The list shows a part of the results.

Each molecule was assayed against human ether-à-go-go-related gene (hERG) potassium channel (human, UniProt Q12809) (assay: primary screen, population patch clamp on CHO cells stably expressing hERG).
Chain of human ether-à-go-go-related gene (hERG) potassium channel (Q12809 whole entry, looked up): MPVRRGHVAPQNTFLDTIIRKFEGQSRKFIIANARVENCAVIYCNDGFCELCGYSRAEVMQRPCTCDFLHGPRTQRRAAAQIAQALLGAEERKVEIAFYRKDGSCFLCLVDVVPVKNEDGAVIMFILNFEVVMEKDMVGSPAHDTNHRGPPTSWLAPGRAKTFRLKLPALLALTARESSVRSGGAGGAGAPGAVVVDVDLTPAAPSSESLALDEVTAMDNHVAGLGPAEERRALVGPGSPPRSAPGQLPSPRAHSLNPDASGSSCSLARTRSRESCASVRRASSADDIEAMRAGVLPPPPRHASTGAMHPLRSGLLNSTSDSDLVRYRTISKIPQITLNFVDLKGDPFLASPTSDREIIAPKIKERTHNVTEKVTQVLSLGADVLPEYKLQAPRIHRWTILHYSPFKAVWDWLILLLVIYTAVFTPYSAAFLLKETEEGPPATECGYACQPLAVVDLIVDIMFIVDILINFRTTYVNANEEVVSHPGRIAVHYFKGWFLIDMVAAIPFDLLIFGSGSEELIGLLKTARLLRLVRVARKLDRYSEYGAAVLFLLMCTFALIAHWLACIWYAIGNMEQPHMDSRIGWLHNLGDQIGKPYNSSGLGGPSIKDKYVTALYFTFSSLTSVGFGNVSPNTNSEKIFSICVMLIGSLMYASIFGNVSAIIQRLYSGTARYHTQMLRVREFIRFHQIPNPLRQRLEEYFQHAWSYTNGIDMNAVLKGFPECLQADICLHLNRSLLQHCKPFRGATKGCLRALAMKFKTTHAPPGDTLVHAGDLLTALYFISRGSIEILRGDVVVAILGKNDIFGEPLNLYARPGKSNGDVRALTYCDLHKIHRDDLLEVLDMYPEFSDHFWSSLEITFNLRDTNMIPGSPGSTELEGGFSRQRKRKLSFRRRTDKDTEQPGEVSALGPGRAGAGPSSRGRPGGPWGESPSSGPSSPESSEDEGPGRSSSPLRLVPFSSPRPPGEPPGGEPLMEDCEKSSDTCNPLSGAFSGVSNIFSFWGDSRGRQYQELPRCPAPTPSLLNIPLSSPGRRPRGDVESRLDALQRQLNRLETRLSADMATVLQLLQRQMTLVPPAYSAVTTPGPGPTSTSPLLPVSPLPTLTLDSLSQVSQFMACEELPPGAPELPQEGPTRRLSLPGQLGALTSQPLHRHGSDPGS

Row | SMILES | hERG current change (%, negative = inhibition) at 1uM [%]
1 | C=CCn1c(=O)c2ccccc2n2c(SCC(C)=O)nnc12 | 7.68
2 | COc1cc(NC(=O)C(=O)NCCN2CCNCC2)c(OC)cc1Cl | 12.1
3 | COc1nnc(-c2ccc(C)c(S(=O)(=O)NCCO)c2)c2ccccc12 | -0.94
4 | CCN(CC)S(=O)(=O)c1cccc(NC(=O)COC(=O)C2COc3ccccc3O2)c1 (stereo not shown) | 6.43
5 | COc1ccc2c(C)c(CCC(=O)N3C[C@H]4C[C@@H](C3)c3cccc(=O)n3C4)c(=O)oc2c1 | -11.8
6 | O=C(NC(=O)N1CCCCCC1)c1ccc(Cl)cc1 | 0.837
7 | CCOc1ccc(C2C(C#N)=C(N)SC(N)=C2C#N)cc1OCC | 13.3
8 | CCn1c(O)c(C2=NCCCC2)c2ccccc21 | -0.203
9 | COc1ccc(OC)c2c1sc(=NC(=O)C1COc3ccccc3O1)n2C (stereo not shown) | 9.4
10 | CCOC(=O)C1=C(N)Oc2cc(O)ccc2C1c1ccc([N+](=O)[O-])cc1 (stereo not shown) | -13.7
11 | CCn1cc(C(=O)Nc2cccc(C(=O)OC)c2)c(=O)c2ccc(C)nc21 | 3.57
12 | COc1ccc(OCC(=O)NNC(=O)c2cccnc2)cc1 | 16.9
13 | COCCN(C(=O)CSc1nnc2cc(C)c3ccccc3n12)c1c(N)n(Cc2ccccc2)c(=O)[nH]c1=O | 13.4
14 | Cc1cc(OC(C)C)nc(-c2ccccc2O)n1 | 6.11
15 | O=C(Nc1ccc(S(=O)(=O)N2CCCCC2)cc1)C1CC(=O)N(c2ccccc2)C1 (stereo not shown) | 12.4
16 | O=C(NCCc1c[nH]c2ccccc12)C(=O)NCC(c1ccco1)N1CCN(c2ccccc2)CC1 (stereo not shown) | 1.16
17 | CCOc1ccc(C(=O)OCC(=O)N2CCCC2)cc1 | 22.8
18 | S=c1[nH]c(-c2ccccc2)cn1/N=C/c1ccccc1Br | 11.6
19 | Cc1ccc(-c2nc(CSCC(=O)NCCCN3CCOCC3)c(C)o2)cc1 | 14.1
20 | Cc1ccccc1-c1cc(C(=O)NCc2cccs2)nn1CC1CC(c2cccc([N+](=O)[O-])c2)=NO1 (stereo not shown) | 10.8
21 | COc1cccc(CN(C(=O)Cc2c[nH]c3ccccc23)C(C(=O)NC2CCCCC2)c2ccc(C)o2)c1 (stereo not shown) | 13.2
22 | CCOc1ccc(OCC)c(NC(=O)CN(c2ccc(C)cc2)S(=O)(=O)c2c(C)noc2C)c1 | 3.61

Row | SMILES | hERG current change (%, negative = inhibition) at 1uM [%]
23 | O=C(C[n+]1cccc(C(=O)Nc2ccccc2)c1)c1ccc([N+](=O)[O-])cc1.[Br-] | -61
24 | Cc1cc2cc(CCNC(=O)CCc3ccccc3)c(=O)[nH]c2cc1C | 6.15
25 | Cc1cc(C)n(-c2ccc(C(=O)NCC(c3ccco3)N3CCCC3)cc2)n1 (stereo not shown) | 6.49
26 | O=C1CC(N2CCSCC2)C(=O)N1CCc1ccccc1 (stereo not shown) | -2.17
27 | C/C(=N/NC(=O)c1ccncc1)c1cc2ccc(O)cc2oc1=O | 12.9
28 | Cc1nnc(SCC(=O)Nc2ccc(Cl)cn2)[nH]c1=O | 11.9
29 | COc1c(Cl)cc(Cl)cc1C(=O)Nc1ccc(CN2CCOCC2)cc1 | 14.4
30 | O=C(c1cc(Sc2ccc(Cl)cc2)nc2ccccc12)N1CCN(c2ccccn2)CC1 | 11.2
31 | Cc1nc2sc(C#N)c(N)c2c2c1CCCC2 | -6.38
32 | CCC1(C)NC(=O)N(CC(=O)Nc2sc3c(c2C(N)=O)CCC3)C1=O (stereo not shown) | 8.18
33 | O=C1CN(C(=O)COC(=O)c2ccc(N3CCCCCC3)c([N+](=O)[O-])c2)c2ccccc2N1 | 11.7
34 | CC(C)Oc1ccc(C(=O)NCc2cccs2)cc1 | -2.12
35 | C=CCn1c2ccccc2c2n[nH]c(=S)nc21 | 9.36
36 | COc1ccc2oc(C(=O)NCC(c3ccco3)N(C)C)c(C)c2c1 (stereo not shown) | 0.59
37 | Cc1noc(/C=C/Nc2ccc(F)cc2F)c1[N+](=O)[O-] | 10.4
38 | CCCCc1cc(C)c(S(=O)(=O)c2ccccc2C)c(=O)[nH]1 | 11.6
39 | CCOC(=O)c1[nH]c(CSc2nnnn2-c2ccccc2C)c(C(=O)OCC)c1C | 8.94
40 | CC1=NN(c2ccc(N)cc2)C(=O)C1.Cl | 6.79
41 | NC(=O)c1ccc(NC(=O)c2cccc3c2OCCCO3)cc1 | 5.36
42 | COc1ccc2nc(N3CCCC(C(=O)NCCCN4CCN(C)CC4)C3)sc2c1 (stereo not shown) | 11.1
43 | CN1CCN(NC(=S)NC2CCCC2)CC1 | 13.2
